Reference: the RNAGym collection of RNA variant scans (doi:10.7554/elife.90254)
The source gives no read counts; variants with many changes may rest on few reads.

B1: LINE1-mini (parent)
chain: GGCAGAGCUCAACACAGCGUGGCAAAGUGGCUGUGGCUAGACUGCC

Variants of: B1
Test: self-cleavage, relative activity (ratio to wild type); higher = more cleavage; in vitro, sequencing; the parent is a self-cleaving ribozyme

| Variant | self-cleavage |
| --- | --- |
| G17A G27C C31U U38G C45A | 0 |
| G17A C23G C42U | 0.04 |
| A16U U34G U43C | 0.02 |
| A16G G36U G44U | 0.42 |
| A16U C23A A39G G44U | 0.1 |
| G17A G19A G22U | 2.84 |
| A16U G17U U28C C42U | 0.01 |
| G17A G29U C37G | 0.01 |
| A16U A24G A39G C46A | 0.13 |
| A16U C31U C37A C46A | 0.01 |
| A16U U20G C31U | 0.01 |
| G17A U32A A39U | 0.01 |
| A16U A24U G40C A41C | 0.01 |
| A16U G17U A24G A41C | 0.01 |
| A16U A25U C37U | 0.06 |
| A16G U28A G33U C46A | 0.02 |
| A16U G29C G36C | 0.11 |
| G17A A26C G33U U34C | 0.03 |
| G17A C31A U38G | 0.03 |
| G17A G21U C31G | 0.05 |
| A16G G36C U43C | 0.05 |

| Variant | self-cleavage |
| --- | --- |
| A16U G21C G29A G33A U38A | 0.05 |
| G17A A24G C46G | 0.09 |
| G17C A24G C45G | 0.13 |
| G17A G27A G35U A39C | 0.04 |
| A16U A26U U34C | 0.17 |
| A16G U32A A39C | 0.02 |
| G17C A25U A26U G36C | 0.04 |
| A16U C18A C37G | 0.02 |
| A16U A24C C42U | 0.01 |
| G17A U38C A41C | 0.03 |
| A16G G35U A39U C42A | 0 |
| G17A G19U A25U G29C | 0.08 |
| G17A A25G G29U | 0.09 |
| G17A U34C C37A | 0.02 |
| G17A C42G U43A | 0.01 |
| A16U C31G C37A | 0.02 |
| A16U U34G G36C | 0.03 |
| A16U G22U U43G | 0.01 |
| A16U A39C C42A | 0.02 |
| A16U A26U A41C | 0.01 |
| A16G U32G C45U | 0 |

| Variant | self-cleavage |
| --- | --- |
| A16U A25C C45A C46U | 0.01 |
| A16U G21C G44A | 0.04 |
| G17A U20A C45G | 0.01 |
| A16U G19U C23U U32A C46A | 0.25 |
| A16U G33U U34G G35A | 0.02 |
| G17A C18A G33A | 0.02 |
| G17A U20C C46U | 0.06 |
| A16G G36C C37U C45U | 0.05 |
| G17A A25U G30U U34A G36A G40A A41G | 0.02 |
| A16U G21A U32C | 0 |
| A16U G21A U32G | 1.63 |
| G17A G19U G22U C23A A25C | 0.38 |
| A16G U38C C45U | 0.02 |
| A16U G40A U43A | 0.04 |
| A16G U38A G40C | 0.01 |
| G17A G40U C45A | 0 |
| A16U G19C G27U G29C A41G | 0.08 |
| G17A U20A U34C | 0.01 |
| G17A G19C G29C | 0.19 |
| G17A G33U C42A | 0.04 |
| A16U G29U G30U C46A | 0.22 |

| Variant | self-cleavage |
| --- | --- |
| G17A C31A A41C | 0.02 |
| A16U C18U C45A | 0.02 |
| G17A A26G U32C U34G C42U | 0.01 |
| A16U C31G G40U C45U | 0.03 |
| A16U G17C G29U | 0.42 |
| G17A A26C G30C G33C U34A | 0.03 |
| G17A G22U U43A G44C | 0.13 |
| G17A G19A G30U | 1.39 |
| G17A G19A G30A | 0.53 |
| G17A A24C G30A C31U | 0.14 |
| A16U G30U G36A | 0.03 |
| A16G G30C A39U G40U C45U | 0.04 |
| G17A A26U C37U | 0.02 |
| A16G U20A C42G | 0.01 |
| A16U U20A G35A | 0.03 |
| A16U G36C G40U | 0.02 |
| G17A U20C G30A C31A G35C | 0.01 |
| A16U G27C G40A C46G | 0.04 |
| G17A C23U U28A U32A | 0.02 |
| G17A U20A A25C G29A | 0.08 |
| G17A G27A U28C G35U C46A | 0 |
